Assay results taken from the RNAGym collection of RNA variant scans (doi:10.1093/nar/gkz1192).
The source gives no read counts; variants with many changes may rest on few reads.

B1: CPEB3 Ribozyme (parent)
chain: UAACAGGGGGCCACAGCAGAAGCGUUCACGUCGCAGCCCCUGUCAGAUUCUGGUGAAUCUGCGAAUUCUGCUGUAUAUCUC

Variants of: B1
Test: self-cleavage, relative activity (ratio to wild type); higher = more cleavage; in vitro, sequencing
Method in brief: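 Relative activity was defined as the cleaved/total read fraction for a variant divided by the same fraction for the unmutated ribozyme. CPEB3 self-cleaving ribozyme libraries were made by rounds of error-prone PCR, barcoded, and transcribed in vitro with T7 RNA polymerase for 5 hours at 37°C, and cleavage ran through transcription plus a 15 min DNase I step before EDTA. Illumina sequencing of template-switched reverse transcripts gave the reads, and DNA sequencing mapped the barcodes. Averages come from three batches, using variants with at least 5 reads.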

Variant | self-cleavage
A20G C40U C59A | 0.25
A20G C40U U51C U54A | 0.37
A20G C44A U51A U80C | 0.19
A20G C44U U69C | 0.24
A20G C50U U76C | 0.83
A20G G22A A35U G46A U74A U76A | 0.21
A20G G22C C39U U69A | 0.06
A20G G24A U31A U54C U66C | 0.17
A20G G24A U43C U60C U76C | 0.15
A20G G24A U80A | 0.29
A20G G24C A35U U58A U74C | 0.02
A20G G30A U31G C32U U76A | 0.15
A20G G30C U51A U60C U66C U72C U80C | 0.07
A20G G30U C38G U54A U60C | 0.06
A20G G30U U69A | 0.17
A20G G33A A35G A56G | 0.08
A20G G33A C34G A75G | 0.06
A20G G33A U49C U51A A56U G73A | 0.05
A20G G33A U69A | 0.1
A20G G33A U72C U80C | 0.06
A20G G33C U41C A65U | 0.11
A20G G33C U43A U78A | 0.09
A20G G33C U72A U76C | 0.07
A20G G36A A57G U60C U69C | 0.3

Variant | self-cleavage
A20G G36A U80C | 0.12
A20G G36C U60C | 0.16
A20G G36U U41C | 0.2
A20G G36U U60A U72A | 0.1
A20G G36U U74C | 0.12
A20G G42A A56G U76C | 0.1
A20G G42A A65C U66C U72C U78A | 0.12
A20G G42A U43C A57G U78A | 0.4
A20G G42U C44U U54A A56G A57G C71A | 0.06
A20G G46A U74C | 0.31
A20G G61A G63C A64G | 0.29
A20G G61A U67A C68A | 0.1
A20G G61A U78C | 0.32
A20G U25A A28U U43C | 0.4
A20G U25A U31A U43C A77G U78A C79U | 0.23
A20G U25A U43C U67A U80C | 0.18
A20G U25A U54G A65G U80A | 0.07
A20G U25C A35C A47G U51A | 0.11
A20G U25C A35U A64U | 0.14
A20G U25C A35U A77G | 0.13
A20G U25C A56U | 0.11
A20G U25C A57G U76C | 0.36
A20G U25C C29U U78C | 0.24
A20G U25C U26C A45U G63A | 0

Variant | self-cleavage
A20G U25C U26C U51A A57G | 0.08
A20G U25C U31C G33C U49A | 0.07
A20G U25C U41A | 0.42
A20G U25C U41C U49C | 0.26
A20G U25C U51C A56G | 0.43
A20G U25C U58C | 0.18
A20G U25C U67C C71A | 0.03
A20G U25G U26A U58C G61A A65G U67C | 0.03
A20G U25G U31C U49C A56G | 0.4
A20G U26A A28U U60C U69A U72C | 0.18
A20G U26A G33A U48A U72C | 0.06
A20G U26A U31C U49C U66C | 0.07
A20G U26A U51A U78C | 0.36
A20G U26A U66A U78C | 0.24
A20G U26A U66C G73A A77G | 0.46
A20G U26C A45G U72A | 0.14
A20G U26C A56G G61A | 0.05
A20G U26C A56G U69C C81U | 0.21
A20G U26C A64G | 0.31
A20G U26C C38A A45G | 0.23
A20G U26C G30A U58C | 0.07
A20G U26C G55U | 0.12
A20G U26C U48C U51A U76A U78C | 0.23
A20G U26C U51A | 0.51

Variant | self-cleavage
A20G U26C U51A G55A | 0.09
A20G U26C U69A | 0.35
A20G U26C U80C | 0.43
A20G U26G A45G U60C | 0.25
A20G U26G C32A A45U U51C C68U U80C | 0.13
A20G U26G U51A U58A | 0.19
A20G U31A A35U U48C | 0.18
A20G U31A A45G U49A U60A | 0.16
A20G U31A A47U | 0.37
A20G U31A U41A A47G U67C | 0.18
A20G U31A U48A U51C U60C | 0.13
A20G U31C A35G U43A | 0.48
A20G U31C A35G U49C A56G A65G | 0.23
A20G U31C A47G | 0.56
A20G U31C A65C U74A | 0.15
A20G U31C C32U | 0.06
A20G U31C U43G U67C U78C | 0.09
A20G U31C U51C | 0.41
A20G U31C U72C | 0.53
A20G U31G A35G U43C U54C U60C | 0.28
A20G U41A A45U U66C U69A U72C | 0.07
A20G U41A U43A U58C | 0.11
A20G U41A U54A A75U | 0.1
A20G U41C A45G G52A U58C U72C | 0.3

Variant | self-cleavage
A20G U41C A45G U49C | 0.26
A20G U41C A45U A64G | 0.16
A20G U41C A56G U67C | 1.05
A20G U41C U43C A56G | 0.27
A20G U41C U51C U60C U72A | 0.26
A20G U41C U54A | 1
A20G U41C U54C U69C | 0.18
A20G U41C U69C U72A U80C | 0.26
A20G U41G U69C A77G U80C | 0.09
A20G U43A A45G A77G | 0.87
A20G U43A A56U A75U | 0.41
A20G U43C A45G U80C | 0.41
A20G U43C A45U G61A | 0.26
A20G U43C A64U | 0.2
A20G U43C A77G | 0.47
A20G U43C C50A | 0.25
A20G U43C G63A U66C U72G | 0.12
A20G U43C U54C U58A U78C | 0.21
A20G U43G U69A U78C | 0.21
A20G U48C A64G U72C | 0.13
A20G U48C G52A A57G | 1.06
A20G U48C U60C A64G U66G U72C | 0.16
A20G U48C U80C | 0.66
A20G U48G A57C U67C | 0.84

Variant | self-cleavage
A20G U49A A56G A64U U74C | 0.13
A20G U49A A77G U78G | 0.36
A20G U49A U66C | 0.21
A20G U49A U72C | 0.28
A20G U49C A56G A65G U80C | 0.31
A20G U49C A65U U69C | 0.12
A20G U51A A57U U80C | 0.39
A20G U51A A64C | 0.56
A20G U51C A65G U72A | 0.31
A20G U51G A56G | 0.45
A20G U51G U67C U76C | 1.19
A20G U54A U72C | 0.99
A20G U54A U78C | 0.62
A20G U54C A65G U72A | 0.36
A20G U54C U74C | 1.23
A20G U54G U60C G63C | 0.25
A20G U58A A65U U67C U69A U78C | 0.09
A20G U58A C68U A77G | 0.1
A20G U58A U72G | 0.27
A20G U58C A64U A65G | 0.1
A20G U58C A65U | 0.07
A20G U58C U60C U76A | 0.08
A20G U58C U67A | 0.12
A20G U58C U78C | 0.35

Variant | self-cleavage
A20G U60A U76C A77U | 0.39
A20G U60C U80A | 0.34
A20G U66A U74C U78C | 0.65
A20G U67A U72A | 0.6
A20G U67A U76C | 0.84
A20G U67C U69G U76C | 0.75
A20G U69A U74C | 0.55
A20G U69C U76C | 0.65
A20G U72A U78A | 1.2
A20G U72A U80A | 0.43
A20G U80C C81A | 1.03
A20U A21C A64G U67C | 0.17
A20U A21G G42A | 0.53
A20U A21G U60A | 0.12
A20U A21U G24A G52A U66C U69C | 0.07
A20U A21U G30A A77U | 0.15
A20U A21U U26C | 0.24
A20U A28C U41C U43C | 0.21
A20U A28C U43C | 0.22
A20U A28G A35G C40A U41A A47G | 0.08
A20U A28G U31A A65G U72A | 0.05
A20U A28G U41A A56U A57G | 0.15
A20U A28G U41A A75U | 0.12
